Reference: the RNAGym collection of RNA variant scans (doi:10.7554/elife.90254)
The source gives no read counts; variants with many changes may rest on few reads.

B1: LINE1-mini (parent)
chain: GGCAGAGCUCAACACAGCGUGGCAAAGUGGCUGUGGCUAGACUGCC

Variants of: B1
Experiment: self-cleavage, relative activity (ratio to wild type); higher = more cleavage; in vitro, sequencing; the parent is a self-cleaving ribozyme

| Variant | self-cleavage |
| --- | --- |
| A16C G36A C46A | 0.06 |
| A16G A25C C46U | 0.32 |
| A16C G19A G44C | 0.06 |
| A16C C31G C45G | 0.03 |
| A16G U34A G36U A39G A41G | 0.01 |
| C15U U20G G40C | 0.02 |
| C15U U32G U34C U38A | 0.03 |
| A16C G17A U28G G40A A41U | 0.04 |
| A16G G36A C46U | 0.01 |
| A16G C23U C31G U32A | 0.02 |
| A16U C31U U32A | 0.61 |
| A16C C23A C37A | 0.06 |
| A16C G40U C46A | 0.03 |
| A16G A39C C42A G44U | 0.07 |
| A16C G21U A26C C45G | 0.02 |
| A16C A25U G29U G30C G33U | 0.04 |
| A16C A41C G44A | 0.01 |
| A16C A39G C46A | 0.03 |
| A16U A25U G33A U43C | 0.03 |
| A16G G33U G35A U38C C46G | 0 |
| C15U U34G A39U C46U | 0.01 |

| Variant | self-cleavage |
| --- | --- |
| A16C G27U U38C | 0.2 |
| A16G A26G G27C G35C U43A | 0.01 |
| A16U C37U G44A | 0.01 |
| A16G G22U U32G U34C | 0.01 |
| A16G G27A C31A G36A A39C | 0.03 |
| A16C G30U G40C | 0.02 |
| A16U C23A A25C | 0.04 |
| A16G C18U A41G | 0.09 |
| A16G U20G G21A G33U | 0.02 |
| A16C C37U A41C C45G | 0 |
| A16C G36C C45U | 0 |
| A16C G17A G19U G21A G22U G35U C45G | 0 |
| A16G G30A C42G | 0 |
| A16C G35A A39G U43A | 0.02 |
| A16C C23U A26U U34C C45G | 0.04 |
| C15U U28G G35U G40A A41G C46U | 0.01 |
| A16G C18U A41U G44A | 0.05 |
| A16U G19A U20C U32A U38A U43A | 0.01 |
| A16U G17U G29U U34C | 0.07 |
| A16G G17U C37G | 0 |
| A16U A25C G29U C37G | 0.06 |

| Variant | self-cleavage |
| --- | --- |
| A16U A24C U32A | 0.07 |
| A16C G19C G21U | 0.38 |
| A16C C18A U20A A25C U28A U32A U43A | 0 |
| A16G G17A A24U U28G | 0.02 |
| A16G G21U G29U G30U G40A | 0.16 |
| A16C C23G G40A C45A | 0.01 |
| A16G U28G C31A | 0.02 |
| A16G G30U G33A U34A G36U | 0.02 |
| A16G U32C G35C | 0.05 |
| A16U G17A C31U U32A A39G C42U | 0.16 |
| A16G C31U U34G | 0.01 |
| A16U C18G U38C | 0.13 |
| A16C A39G G44U | 0.06 |
| A16C G17U G21U G30U C37G | 0.01 |
| A16G C18A A26G G29U G35A G36U | 0.04 |
| A16G G22C G40U C46A | 0 |
| A16G G22U A41G | 0 |
| A16C G22C C46G | 0.1 |
| A16G G29U G40U | 0.16 |
| A16C U34C C37U | 0.75 |
| A16C G27A G29U C31U C37U A41G | 0.06 |

| Variant | self-cleavage |
| --- | --- |
| A16C G29U C42G | 0.07 |
| A16G G27A G33U | 0.14 |
| A16G G22A G30U A39C | 0.02 |
| A16G G22A U32A A41G C45A | 0.04 |
| A16G G19A G35U | 0.03 |
| A16G C23G A26G G30C A41G G44C | 0.01 |
| A16C C23G A24G | 0.09 |
| A16G G22A G36U | 0.38 |
| A16U A25C G35A | 0.01 |
| A16U C31A U38G G44A | 0.01 |
| A16C A25G G30U | 0.04 |
| A16C A26C G35U G36U A41U | 0.08 |
| A16G U20A C23U C42A | 0.02 |
| A16C A24U G40C | 0.02 |
| A16U C18A G27U G35C G40C | 0.02 |
| A16U C18U C31U C42A | 0.03 |
| A16G G44U C45U | 0 |
| A16G G19C G35U | 0.01 |
| A16C G17A G21A A24C A39U | 0.01 |
| A16C A25G G29U C31U G33C | 0.03 |
